# Laboratory results from PubChem BioAssay AID588453 (National Center for Advancing Translational Sciences (NCATS), 2011).
# Screen size: about 390,000 compounds; about 4,000 (1%) were called active. The inconclusive results got no clear call from the source; some entries with a clear call stand among them for comparison. Calls come from the whole dose curve; as a rule, active = well fitted inhibition curve with a large enough effect; inconclusive = small, poorly fitted or top-dose-only effect; inactive = no such curve, though single readings can be large or run the other way. Potencies of inconclusive entries are doubtful fits and often do not repeat.
# Biological target: Thioredoxin reductase 1, cytoplasmic (Rattus norvegicus) (UniProt O89049)
# Assay: qHTS Assay for Inhibitors of Mammalian Selenoprotein Thioredoxin Reductase 1 (TrxR1): qHTS; note: nearly all actives have a fitted effect of over 65% in size
# Settings: recombinant rTrxR1, NADPH fluorescence consumption, selenite substrate; series mostly up to 114 µM
# Procedure, shortened: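 Rat TrxR1 (90 nM in the dispensed reagent) was pre-reduced with 400 uM NADPH for 5 min at room temperature, then incubated with compound for 15 min. After 400 uM selenite was added, NADPH fluorescence (Ex 340/Em 450 nm) was followed for 8 min.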
# Potency is the fitted concentration of half-maximal effect; tags give direction and shape of the fitted curve.
# Sequence of UniProt O89049 (O89049 whole entry, looked up): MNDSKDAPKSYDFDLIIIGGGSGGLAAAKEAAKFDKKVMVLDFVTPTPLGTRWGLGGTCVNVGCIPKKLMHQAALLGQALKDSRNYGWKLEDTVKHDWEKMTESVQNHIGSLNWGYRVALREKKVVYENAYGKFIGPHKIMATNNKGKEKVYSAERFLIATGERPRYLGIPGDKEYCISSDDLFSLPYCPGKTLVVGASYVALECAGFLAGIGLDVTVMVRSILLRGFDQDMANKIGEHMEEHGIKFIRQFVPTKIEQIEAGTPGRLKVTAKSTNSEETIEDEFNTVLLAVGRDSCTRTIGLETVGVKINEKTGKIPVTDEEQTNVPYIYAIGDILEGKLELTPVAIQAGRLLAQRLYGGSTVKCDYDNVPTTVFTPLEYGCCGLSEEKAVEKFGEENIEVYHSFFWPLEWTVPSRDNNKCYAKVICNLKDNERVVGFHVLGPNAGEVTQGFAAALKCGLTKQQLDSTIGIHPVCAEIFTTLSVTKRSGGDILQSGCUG
row,SMILES,Potency
1,Cn1c2ccccc2c(=O)c2ccc(F)cc21,"inconclusive: 28.2 µM [inhibitor, full curve]"
2,CSc1nc(-c2ccco2)nn1C(=O)c1ccc(C)cc1,active: 20 µM
3,CSc1ncc(C(=O)N2CCN(c3cccc(Cl)c3)CC2)c(C)n1,inactive
4,CCOc1cc(NC(=S)NCCCN2CCOCC2)c(OCC)cc1NC(=O)C1CC1,"inconclusive: 3.16 µM [inhibitor, full curve]"
5,O=S(=O)(Nc1nc2ccccc2nc1OCC(F)(F)F)c1cccs1,inactive
6,Cc1ccc(C(NC(=O)C(C)C)c2cc([N+](=O)[O-])c3cccnc3c2O)cc1 (centres undefined),inactive
7,O=C(NC1CCCCC1)N1CCN(c2ccc(Cl)cc2)CC1,inactive
8,CC(=O)NCCc1ccc(O)c(O)c1,"inconclusive: 26.7 µM [inhibitor, partial curve]"
9,Cc1cccc(-c2noc(CNC(=O)c3ccoc3C)n2)c1,"inconclusive: 50.1 µM [inhibitor, partial curve]"
10,CCOc1ccccc1-n1nnnc1SCC(=O)NC(=O)NCc1ccco1,"inconclusive: 12.6 µM [inhibitor, full curve]"
11,CC(C)CC1=C/C(=C/c2ccc(-c3ccccc3)o2)C(=O)O1,"inconclusive: 20 µM [inhibitor, partial curve, poor fit]"
12,CCc1cccc(C)c1NC(=O)CCS(=O)(=O)c1ccc2c(c1)oc(=O)n2C,"inconclusive: 15.8 µM [inhibitor, full curve]"
13,O=C(Oc1ccc(=O)n(-c2ccccc2)n1)c1cccc(Cl)c1,active: 3.55 µM
14,C#CCOCCOCCOCCNc1nc(N2CCN(C(=O)[C@H]([C@@H](C)CC)n3cc([C@@H](N)Cc4ccc(O)cc4)nn3)CC2)nc(N2CCN(C(=O)[C@H](CCCCN)n3cc([C@@H](N)C(C)CC)nn3)CC2)n1 (some centres undefined),inactive
15,N#Cc1ccsc1NC(=O)CN1CCCCCC1,"inconclusive: 25.1 µM [inhibitor, single point]"
16,Cc1ccc(S(=O)(=O)CC(C)N2CCOCC2)c(S(=O)(=O)CC(C)N2CCOCC2)c1 (centres undefined),"inconclusive: 39.8 µM [inhibitor, partial curve]"
17,Cc1c(Cl)c([N+](=O)[O-])nn1CC(=O)NCc1ccc(Cl)cc1,"inconclusive: 12.6 µM [inhibitor, single point]"
18,O=c1[nH]c(=S)[nH]c2c1C(c1ccc(Br)cc1)c1c([nH]c(=S)[nH]c1=O)O2,"inconclusive: 20 µM [inhibitor, partial curve]"
19,O=C(CSc1ccc(Cl)cc1)N1CCN(c2c(Cl)cccc2[N+](=O)[O-])CC1,"inconclusive: 25.1 µM [inhibitor, single point]"
20,CCOC(=O)Cc1csc(NC(=O)NC2(C(F)(F)F)Oc3ccc(Cl)cc3O2)n1 (centres undefined),active: 8.91 µM
21,CC1(C)Cc2c(c(-c3ccco3)nc3sc4c(NCC5CCCO5)ncnc4c23)CO1 (centres undefined),"inconclusive: 6.31 µM [inhibitor, full curve, poor fit]"
22,CCc1ccccc1NC(=O)NC(CC)Cn1nnc2ccccc2c1=O (centres undefined),inactive
23,O=C1CC(c2ccccc2)=NO1,"inconclusive: 31.6 µM [inhibitor, partial curve, poor fit]"

row,SMILES,Potency
1,CN(C)S(=O)(=O)c1cccc(NC(=O)COC(=O)/C=C/c2ccco2)c1,active: 25.1 µM
2,O=C(N/N=C/c1ccc([N+](=O)[O-])o1)C(O)c1ccccc1 (centres undefined),"inconclusive: 25.1 µM [inhibitor, full curve]"
3,COc1ccc(C(=O)NCC(c2ccco2)N2CCCCC2)cc1S(=O)(=O)Nc1ccc(C)cc1 (centres undefined),inactive
4,Cc1ccc(S(=O)(=O)NC(=S)NC2CCCCC2)cc1,active: 3.55 µM
5,CC(C)(C)NS(=O)(=O)c1ccc(OCC(=O)NCCC2=CCCCC2)cc1,inactive
6,O=C(CN1CCN(CC(=O)c2ccc(F)cc2)CC1)Nc1ccccc1Cl,"inconclusive: 15.8 µM [inhibitor, partial curve]"
7,CC(C)NC(=O)NC(=O)COC(=O)c1ccc(S(=O)(=O)NCc2ccco2)cc1,inactive
8,COc1cc2c(NC3CCN(C)CC3)nc(N3CCCN(C)CC3)nc2cc1OCCCCN(C)C,"inconclusive: 15.8 µM [inhibitor, full curve, poor fit]"
9,CCCCNC(=O)CN1CCN(c2ncc(NC(=O)c3ccc(Cl)cc3)cc2C(=O)O)CC1,inactive
10,Cc1c(O)ccc2c1OC(C)(C)CC2,"inconclusive: 56.2 µM [inhibitor, partial curve, poor fit]"
11,O=S(=O)(c1ccc2c(c1)nc(COc1ccc(Cl)cc1)n2CC1CCCO1)N1CCOCC1 (centres undefined),inactive
12,CCN(CC)c1ccc(Nc2nc(-c3cccnc3)cs2)cc1,inactive
13,COc1ccc(-c2nc(CS(=O)CC(=O)NCc3ccc4c(c3)OCO4)c(C)o2)cc1OC (centres undefined),"inconclusive: 28.2 µM [inhibitor, partial curve]"
14,Cc1ccc(C(=O)COC(=O)CCC(=O)NC2CCCCC2)cc1C,"inconclusive: 70.8 µM [inhibitor, single point]"
15,Cc1cccc(CN2C(=O)N/C(=C/c3cc(C)n(-c4cc(C)ccn4)c3C)C2=O)c1,"inconclusive: 79.4 µM [inhibitor, single point]"
16,Cc1ccc(O)c(-c2n[nH]c3c2C(c2ccc(F)cc2)N(Cc2ccco2)C3=O)c1 (centres undefined),inactive
17,CC(C)CNC(=S)NC(=O)c1ccc(Cl)cc1,active: 14.1 µM
18,Cc1ccc(-c2cc(C(=O)N3CCN(c4ncccn4)CC3)c3cc(Br)ccc3n2)o1,inactive
19,Cn1ncc(Cl)c1C(=O)N1CCC(Cc2ccccc2)CC1,inactive
20,Cc1cccc2cc(C(c3nnnn3CC3CCCO3)N3CCc4ccccc4C3)c(=O)[nH]c12 (centres undefined),"inconclusive: 10 µM [inhibitor, partial curve]"
21,COc1cccc(C2C=C(c3ccc(Br)s3)Nc3ncnn32)c1OC (centres undefined),"inconclusive: 15.8 µM [inhibitor, full curve]"
22,COc1ccc(S(=O)(=O)c2cnc3ccccc3n2)cc1,"inconclusive: 79.4 µM [inhibitor, partial curve, poor fit]"
23,CC(/C=C/c1ccco1)=N/NC(=O)OC(C)(C)C,"inconclusive: 31.6 µM [inhibitor, partial curve]"

row,SMILES,Potency
1,Cc1cc([N+](=O)[O-])cc2c1NC(c1ccccn1)C1CC=CC21 (centres undefined),"inconclusive: 39.8 µM [inhibitor, partial curve]"
2,Cc1cccc(CNC(=O)CN2C(=O)CCn3nc(-c4cn(C)c5ccccc45)cc32)c1,inactive
3,CC(=O)ON(C(C)=O)c1ccc(/C=C2/C=Cc3ccccc32)cc1,"inconclusive: 89.1 µM [inhibitor, single point]"
4,COc1ccc(NC(=O)Nc2c(C)n(C)n(-c3ccccc3)c2=O)c(OC)c1,"inconclusive: 89.1 µM [inhibitor, single point]"
5,Cc1ccc(/C=c2\sc3n(c2=O)CN(c2ccc(Br)cc2)CN=3)o1,"inconclusive: 70.8 µM [inhibitor, single point]"
6,COc1cccc(CNC(=O)CCC2CCCN(C(=O)c3ccc(OC)o3)C2)c1 (centres undefined),"inconclusive: 79.4 µM [inhibitor, single point]"
7,COCCCNCC#CCOc1ccc(OC)cc1,"inconclusive: 56.2 µM [inhibitor, partial curve]"
8,COc1ccc(CCNC(=S)NNC(=O)c2c(Br)c(C)nn2C)cc1OC,"inconclusive: 89.1 µM [inhibitor, single point]"
9,CN(C)c1ccc(-c2noc(C3CCN(S(=O)(=O)c4ccc(C(=O)O)cc4)CC3)n2)cc1,"inconclusive: 31.6 µM [inhibitor, partial curve, poor fit]"
10,Cc1nn(-c2ccccc2)c(C)c1/C=N/n1c(-c2ccc(C(C)(C)C)cc2)n[nH]c1=S,"inconclusive: 22.4 µM [inhibitor, single point]"
11,O=Nc1ccc(NOC(=O)c2ccccc2Br)cc1,"inconclusive: 44.7 µM [inhibitor, partial curve]"
12,CN1COc2ccc3ccccc3c2C1,"inconclusive: 56.2 µM [inhibitor, partial curve]"
13,O=C1C=CC(=O)N1c1ccccn1,"inconclusive: 25.1 µM [inhibitor, full curve]"
14,COc1cc2c(NC3CCN(C)CC3)nc(N3CCCN(C)CC3)nc2cc1OCCOCCN(C)C,"inconclusive: 22.4 µM [inhibitor, full curve]"
15,Cc1ccc(NC(=O)c2ccc([N+](=O)[O-])o2)cc1S(=O)(=O)N1CCOCC1,"inconclusive: 39.8 µM [inhibitor, partial curve, poor fit]"
16,CC(C)N(C(=S)Nc1cc(S(=O)(=O)N2CCOCC2)ccc1Cl)c1ccccc1,"inconclusive: 56.2 µM [inhibitor, partial curve]"
17,Cc1ccc(S(=O)(=O)CCC(=O)N2CCN(c3ccc([N+](=O)[O-])cc3)CC2)cc1,active: 28.2 µM
18,COc1ccc(OC)c(Nc2cc3ccccc3c(=O)[nH]2)c1,"inconclusive: 56.2 µM [inhibitor, partial curve, poor fit]"
19,CCOC(=O)NC(=O)/C(C#N)=N\Nc1cccc(Cl)c1,inactive
20,Nc1ncnc2oc(-c3ccoc3)c(-c3ccco3)c12,active: 50.1 µM
21,COCCCN1C(=O)c2ccc(C(=O)OCC(=O)NCc3cccc(OC)c3)cc2C1=O,"inconclusive: 89.1 µM [inhibitor, single point]"
22,O=C(CSc1cccc[n+]1[O-])c1cccs1,"inconclusive: 70.8 µM [inhibitor, partial curve, poor fit]"
23,CCC(=O)N/N=C(\C)CC(=O)Nc1ccc(Cl)cc1,"inconclusive: 79.4 µM [inhibitor, partial curve]"
